We go through one molecule from PMC6224509 (2018).

A word on the Kd: it is the concentration at which binding is half-saturated.

Where only a bound is given, the exact number is not on record here.

The assay has as its target Galectin-9 (UniProt O00182 1-355). The assay is described as follows: SPR; 25°C.

B1: human 4-1BB […], wild type, His–Avi (receptor)
chain: not shown
With B1, the Kd is more than 15 µM.
